Measured values as given in patent US20260137703A1, “2-AMINO-PYRIDO[2,3-D]PYRIMIDIN-7(8H)-ONE AND 7-AMINO-1-PYRIMIDO[4,5-D]PYRIMIDIN-2(1 H)-ONE DERIVATIVES AS EGFR INHIBITORS FOR THE TREATMENT OF CANCER” (Cancer Research Technology Limited, priority 2022, published 2026).

target: CtermHisTag-mEGFR Triple Mutant (R797S, L858R, T790M) (Homo sapiens, UniProt P00533, C797S/L858R/T790M); assay: TR-FRET probe displacement, EGFR triple mutant; conditions: 1.25 nM EGFR, 100 nM probe, 30 mins room temperature

IC50	SMILES
100 to 1000 nM	C#Cc1cc(=O)n(C2CCN(C)C2)c2nc(Nc3ccc(N4CCN(C)CC4)cc3)ncc12 (stereo not shown) [Example 107, 5-ethynyl-2-{[4-(4-methylpiperazin-1-yl)phenyl]amino}-8-(1-methylpyrrolidin-3-yl)pyrido[2,3-d]pyrimidin-7-one]
20 to 100 nM	C#Cc1c(C)c(=O)n(Cc2ccn[nH]2)c2nc(Nc3ccc(N4CCN(C)CC4)cc3)ncc12 [Example 109, 5-ethynyl-6-methyl-2-{[4-(4-methylpiperazin-1-yl)phenyl]amino}-8-(2H-pyrazol-3-ylmethyl)pyrido[2,3-d]pyrimidin-7-one]
20 to 100 nM	C#Cc1c(C)c(=O)n(Cc2ccn(C)n2)c2nc(Nc3ccc(N4CCN(C)CC4)cc3)ncc12 [Example 110, 5-ethynyl-6-methyl-2-{[4-(4-methylpiperazin-1-yl)phenyl]amino}-8-[(1-methylpyrazol-3-yl)methyl]pyrido[2,3-d]pyrimidin-7-one]
20 to 100 nM	C#Cc1c(C)c(=O)n(Cc2ccno2)c2nc(Nc3ccc(N4CCN(C)CC4)cc3)ncc12 [Example 113, 5-ethynyl-6-methyl-2-{[4-(4-methylpiperazin-1-yl)phenyl]amino}-8-(1,2-oxazol-5-ylmethyl)pyrido[2,3-d]pyrimidin-7-one]
20 to 100 nM	C#Cc1c(C)c(=O)n(Cc2cccnc2)c2nc(Nc3ccc(N4CCN(C)CC4)cc3)ncc12 [Example 115, 5-ethynyl-6-methyl-2-{[4-(4-methylpiperazin-1-yl)phenyl]amino}-8-(pyridin-3-ylmethyl)pyrido[2,3-d]pyrimidin-7-one]
100 to 1000 nM	C#Cc1c(C)c(=O)n(Cc2cccnc2)c2nc(Nc3ccc(N4CCN(C)CC4)cc3)ncc12 [Example 116, 5-ethynyl-6-methyl-2-{[4-(4-methylpiperazin-1-yl)phenyl]amino}-8-(pyridin-3-ylmethyl)pyrido[2,3-d]pyrimidin-7-one]

Second part, the compound before the results:

SMILES	IC50
C#Cc1cc(=O)n(C2CNC(=O)C2)c2nc(Nc3ccc(N4CCN(C)CC4)cc3)ncc12 (stereo not shown) [Example 108, 4-(5-ethynyl-2-{[4-(4-methylpiperazin-1-yl)phenyl]amino}-7-oxopyrido[2,3-d]pyrimidin-8-yl)pyrrolidin-2-one]	100 to 1000 nM
C#Cc1c(C)c(=O)n(Cc2cnc[nH]2)c2nc(Nc3ccc(N4CCN(C)CC4)cc3)ncc12 [Example 111, 5-ethynyl-8-(3H-imidazol-4-ylmethyl)-6-methyl-2-{[4-(4-methylpiperazin-1-yl)phenyl]amino}pyrido[2,3-d]pyrimidin-7-one]	100 to 1000 nM
C#Cc1c(C)c(=O)n(Cc2ccnn2C)c2nc(Nc3ccc(N4CCN(C)CC4)cc3)ncc12 [Example 112, 5-ethynyl-6-methyl-2-{[4-(4-methylpiperazin-1-yl)phenyl]amino}-8-[(2-methylpyrazol-3-yl)methyl]pyrido[2,3-d]pyrimidin-7-one]	20 to 100 nM
C#Cc1c(C)c(=O)n(Cc2ncco2)c2nc(Nc3ccc(N4CCN(C)CC4)cc3)ncc12 [Example 114, 5-ethynyl-6-methyl-2-{[4-(4-methylpiperazin-1-yl)phenyl]amino}-8-(1,3-oxazol-2-ylmethyl)pyrido[2,3-d]pyrimidin-7-one]	20 to 100 nM
C#Cc1cc(=O)n(C2CC(=O)N(C)C2)c2nc(Nc3ccc(N4CCN(C)CC4)cc3)ncc12 (stereo not shown) [Example 117, 4-(5-ethynyl-2-{[4-(4-methylpiperazin-1-yl)phenyl]amino}-7-oxopyrido[2,3-d]pyrimidin-8-yl)-1-methylpyrrolidin-2-one]	100 to 1000 nM
C#Cc1cc(=O)n(Cc2ccn(C)n2)c2nc(Nc3ccc(N4CCN(C)CC4)cc3)ncc12 [Example 118, 5-ethynyl-2-{[4-(4-methylpiperazin-1-yl)phenyl]amino}-8-[(1-methylpyrazol-3-yl)methyl]pyrido[2,3-d]pyrimidin-7-one]	< 20 nM
C#Cc1cc(=O)n(CC2CCNC2=O)c2nc(Nc3ccc(N4CCN(C)CC4)cc3)ncc12 (stereo not shown) [Example 119, 3-[(5-ethynyl-2-{[4-(4-methylpiperazin-1-yl)phenyl]amino}-7-oxopyrido[2,3-d]pyrimidin-8-yl)methyl]pyrrolidin-2-one]	20 to 100 nM
